Among all 310,000 compounds or so, about 2,200 (0.71%) showed an effect of 50% or more. The effect is printed as a negative number. Some of the results follow.
Biological target: human ether-à-go-go-related gene (hERG) potassium channel (human, UniProt Q12809)
Experiment: primary screen, population patch clamp on CHO cells stably expressing hERG

Chain of human ether-à-go-go-related gene (hERG) potassium channel (Q12809 whole entry, looked up): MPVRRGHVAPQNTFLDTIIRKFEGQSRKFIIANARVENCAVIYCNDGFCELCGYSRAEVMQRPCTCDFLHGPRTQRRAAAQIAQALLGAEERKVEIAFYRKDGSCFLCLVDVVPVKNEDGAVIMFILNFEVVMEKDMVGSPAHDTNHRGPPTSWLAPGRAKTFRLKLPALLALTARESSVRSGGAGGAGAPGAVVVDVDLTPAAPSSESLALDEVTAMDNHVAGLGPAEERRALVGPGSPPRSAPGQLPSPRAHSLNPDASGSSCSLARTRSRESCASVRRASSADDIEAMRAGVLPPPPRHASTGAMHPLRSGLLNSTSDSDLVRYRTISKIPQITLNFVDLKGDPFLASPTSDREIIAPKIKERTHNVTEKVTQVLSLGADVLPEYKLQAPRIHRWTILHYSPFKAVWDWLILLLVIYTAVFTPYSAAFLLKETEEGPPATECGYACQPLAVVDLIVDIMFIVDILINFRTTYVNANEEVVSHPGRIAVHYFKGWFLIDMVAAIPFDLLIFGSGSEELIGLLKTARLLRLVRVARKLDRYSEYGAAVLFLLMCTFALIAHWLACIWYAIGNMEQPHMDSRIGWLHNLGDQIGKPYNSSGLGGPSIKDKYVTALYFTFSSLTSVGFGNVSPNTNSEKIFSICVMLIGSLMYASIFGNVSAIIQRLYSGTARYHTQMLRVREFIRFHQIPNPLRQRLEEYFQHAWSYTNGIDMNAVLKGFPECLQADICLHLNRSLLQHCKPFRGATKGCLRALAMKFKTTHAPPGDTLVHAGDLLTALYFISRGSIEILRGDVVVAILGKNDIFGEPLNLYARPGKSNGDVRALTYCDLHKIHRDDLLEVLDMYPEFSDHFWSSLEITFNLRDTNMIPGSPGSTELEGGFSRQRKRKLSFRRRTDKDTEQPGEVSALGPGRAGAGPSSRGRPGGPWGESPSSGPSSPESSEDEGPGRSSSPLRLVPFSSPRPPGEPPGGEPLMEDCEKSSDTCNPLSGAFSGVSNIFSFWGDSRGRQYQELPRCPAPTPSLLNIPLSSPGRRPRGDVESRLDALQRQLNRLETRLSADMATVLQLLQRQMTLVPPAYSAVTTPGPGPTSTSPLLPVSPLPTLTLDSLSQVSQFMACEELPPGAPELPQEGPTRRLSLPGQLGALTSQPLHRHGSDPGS

Going from `CC1CC(=O)N(CC(=O)NCc2ccc3c(c2)OCO3)c2ccccc2S1` (stereo not shown) to `CC(Sc1ccc(Cl)cc1)C(=O)Nc1ccc2c(c1)OCO2` (stereo not shown), the “hERG current change (%, negative = inhibition) at 1uM” value rises from 8.15% to 11.7%.

Compared with `CCc1nnc(NS(=O)(=O)c2ccc(N/C=C\C(=O)c3cccc(OC)c3)cc2)s1`, `CCc1nnc(NC(=O)CSc2nc3ccc(OC)cc3[nH]2)s1` is lower in “hERG current change (%, negative = inhibition) at 1uM” value: 22.5% for the first, 3.65% for the second.

Compared with `Cc1cc(Oc2ccc(-c3nnc(-c4ccccc4)o3)cc2[N+](=O)[O-])ccc1Cl`, `Cc1cccc(NC(=O)c2sc(-c3ccccc3)nc2-c2ccc([N+](=O)[O-])cc2)c1` is lower in “hERG current change (%, negative = inhibition) at 1uM” value: 12.5% for the first, 3.75% for the second.

Compared with `Cc1c(NC(=O)C2CCN(S(=O)(=O)c3ccc(Cl)cc3)CC2)c(=O)n(-c2ccccc2)n1C`, `Cc1ccn2c(c1)nc(=O)c1cc(S(=O)(=O)N3CCC(C)CC3)ccc12` is lower in “hERG current change (%, negative = inhibition) at 1uM” value: 17.1% for the first, -2.56% for the second.

First: CC1(C)CC(=O)C=C(Nc2ccccn2)C1
Second: CN1/C(=C\C(=O)c2ccco2)c2ccccc2CC1(C)C
The “hERG current change (%, negative = inhibition) at 1uM” value of the first is higher: 0.961% for the first, -10.9% for the second.

Compared with `CCSc1ccc(/C(N)=N/OC(=O)c2cccs2)cn1`, `Cc1ccc(COc2ccsc2C(=O)NN)cc1` is higher in “hERG current change (%, negative = inhibition) at 1uM” value: 8.95% for the first, 12.8% for the second.

First: O=C(c1ccc(Br)s1)N1CCc2ccccc2C1
Second: O=C(c1cc2ccccc2o1)N1CCN=C1SCc1cccc(F)c1
The “hERG current change (%, negative = inhibition) at 1uM” value of the first is lower: 1.86% for the first, 9.3% for the second.

First: O=C1CC(N2CCN(Cc3ccccc3)CC2)C(=O)N1c1ccccc1 (stereo not shown)
Second: O=C1CCN(Cc2ccc([N+](=O)[O-])cc2)CCN1[C@H](CO)c1ccccc1
The “hERG current change (%, negative = inhibition) at 1uM” value of the first is higher: 9.52% for the first, -5.61% for the second.

First: CCOC(=O)[C@H]1[C@H]2COc3cc(OC)ccc3[C@@H]2N2C(=O)CN(Cc3ccccc3)C(=O)[C@@]12C
Second: COc1cccc(CNC(=O)c2ccccc2-c2ccccc2C(=O)O)c1
The “hERG current change (%, negative = inhibition) at 1uM” value of the first is higher: 19.6% for the first, 16% for the second.

First: FC(F)(F)c1cc(-c2ccccn2)nc2cc(-c3ccccc3)nn12
Second: COc1ccc(-c2csc(N3CCC(c4ccccc4)CC3)n2)cc1
The “hERG current change (%, negative = inhibition) at 1uM” value of the first is lower: 16.2% for the first, 17.6% for the second.

First: Cc1ccc(C(=O)OCc2nnc(-c3ccccc3)o2)cc1S(=O)(=O)N1CCOCC1
Second: O=C(NCC1CCCO1)c1cccc(S(=O)(=O)N2CCOCC2)c1 (stereo not shown)
The “hERG current change (%, negative = inhibition) at 1uM” value of the first is lower: 5.51% for the first, 20.6% for the second.

First: Cl.Fc1ccc(Nc2ncnc3sc4c(c23)CCC4)cc1
Second: N#Cc1c(NC(=O)CSc2nnc(-c3ccncc3)n2CC2CCCO2)sc2c1CCCC2 (stereo not shown)
The “hERG current change (%, negative = inhibition) at 1uM” value of the first is higher: 1.46% for the first, -15% for the second.

Compared with `CCOC(=O)Nc1ccc(S(=O)(=O)Nn2cnnc2)cc1`, `COC(=O)c1ccc(NC(=O)COc2ccc(S(=O)(=O)NC(C)(C)C)cc2)cc1` is higher in “hERG current change (%, negative = inhibition) at 1uM” value: 5.84% for the first, 10.4% for the second.

Going from `Cc1cn2nc(N)c3ccccc3c2n1` to `O=c1[nH]c2ccccc2n2c(=S)[nH]nc12`, the “hERG current change (%, negative = inhibition) at 1uM” value rises from -2.63% to 12.4%.

Compared with `CCOc1ccc(-c2c(C(=O)N/N=C/c3sccc3C)nnn2-c2nonc2N)cc1`, `COc1ccc(NC(=O)CSc2nnc(NC(=O)c3ccco3)s2)cc1` is lower in “hERG current change (%, negative = inhibition) at 1uM” value: 14.8% for the first, 14.3% for the second.

Going from `O=C(Nc1cnc2sccn2c1=O)c1ccccc1Cl` to `COC(=O)c1ccc2c(=O)n(Cc3ccco3)c(SCC(=O)Nc3ccccc3Cl)nc2c1`, the “hERG current change (%, negative = inhibition) at 1uM” value falls from 10.7% to -1.19%.

Going from `CC(C)(C)C(=O)NNC(=O)C1CC1(c1ccccc1)c1ccccc1` (stereo not shown) to `CCOC(=O)C(Oc1ccc2c(-c3ccccc3)cc(=O)oc2c1C)c1ccccc1` (stereo not shown), the “hERG current change (%, negative = inhibition) at 1uM” value falls from 11.3% to 11%.

Going from `O=C(CCC(=O)c1ccc(F)cc1)NCc1ccccc1C(F)(F)F` to `CCOc1c(CNCc2ccc(C(=O)O)cc2)cccc1OC.Cl`, the “hERG current change (%, negative = inhibition) at 1uM” value falls from 22.2% to 3.09%.

First: COc1ccc(C(CNC(=O)c2cc3ccccc3cc2O)N2CCOCC2)cc1 (stereo not shown)
Second: COc1cc(OC)cc(C(=O)NCC(=O)N2CCN(c3ccc(O)cc3)CC2)c1
The “hERG current change (%, negative = inhibition) at 1uM” value of the first is lower: 5.01% for the first, 12.8% for the second.

Going from `CC(=O)c1ccc(NC(=O)Nc2ccncc2)cc1` to `CCC(=O)Nc1cccc(NC(=O)c2ccc(Br)cc2)c1`, the “hERG current change (%, negative = inhibition) at 1uM” value falls from 13.5% to 11.8%.

Going from `CC1(C(=O)NC2CCCCC2)CCC(=O)N1Cc1cccnc1` (stereo not shown) to `Cc1cc(C)cc(N(C(=O)C2CCCC2)C2C=CS(=O)(=O)C2)c1` (stereo not shown), the “hERG current change (%, negative = inhibition) at 1uM” value falls from 14.3% to -22.1%.

First: CSc1ncc(C(=O)O)c(C)n1
Second: Cc1cc(NC(=O)c2c(Cl)c(C)nn2C)no1
The “hERG current change (%, negative = inhibition) at 1uM” value of the first is lower: -6.2% for the first, 14.3% for the second.

First: O=C(COc1ccc(Br)cc1Cl)N1CCN(c2ncccn2)CC1
Second: COc1ccc(S(=O)(=O)N2CCCCC2)cc1Br
The “hERG current change (%, negative = inhibition) at 1uM” value of the first is lower: -16.8% for the first, 3.21% for the second.

Going from `COCCCNC(=O)/C(C#N)=C/c1c(N2CCN(C)CC2)nc2c(C)cccn2c1=O` to `COc1ccc(C(=O)NCCC2=CCCCC2)cc1`, the “hERG current change (%, negative = inhibition) at 1uM” value falls from 14% to 3.5%.

First: COc1ccc(-c2nc(N)n[nH]2)cc1
Second: COC(=O)c1ccccc1OCCOCCOc1cccc2ccc(C)nc12
The “hERG current change (%, negative = inhibition) at 1uM” value of the first is higher: 17.8% for the first, -6.64% for the second.

Compared with `CC1CN(C(=O)c2ccc(CNS(=O)(=O)c3cccc(C(F)(F)F)c3)cc2)CC(C)O1` (stereo not shown), `CC(=O)Nc1ccc(S(=O)(=O)N2CC3(C)CC2CC(C)(C)C3)cc1` (stereo not shown) is lower in “hERG current change (%, negative = inhibition) at 1uM” value: 13% for the first, 11.6% for the second.

Compared with `CC(=O)NCCNC(=O)CNC(=O)c1ccc(Cl)cc1`, `Nc1ccc(N2CCCCC2)c(S(=O)(=O)Nc2ccc(Cl)cc2)c1` is lower in “hERG current change (%, negative = inhibition) at 1uM” value: 8.38% for the first, 7.39% for the second.

Going from `CC(=O)NC1C(=O)SC1(C)C` (stereo not shown) to `Cc1cccc(NS(=O)(=O)c2cc3c(cc2C)n(C)c(=O)c(=O)n3C)c1`, the “hERG current change (%, negative = inhibition) at 1uM” value falls from 19.9% to 0.0515%.

First: C/C(=N/OC(=O)c1c(-c2ccccc2Cl)noc1C)c1cnccn1
Second: Cc1ccc(C(=O)CSc2nnc3ccccn23)c(C)c1
The “hERG current change (%, negative = inhibition) at 1uM” value of the first is higher: 8.98% for the first, 7.33% for the second.

From publication PMC4336329 (PLoS ONE, 2015)
